# In PubChem BioAssay AID463173 (ICCB-Longwood Screening Facility, Harvard Medical School, 2010):
# Screen size: about 52,000 compounds; about 4,300 (8.3%) were called active. Cut-off read from the data, not from the text of the source: active = survival mostly below about 52% (no sharp cut-off); inactive = mostly above about 56%. This is one part of the list.
# Test system: DeltatarO mutant
# Test: S. aureus survival, RN4220 and DeltatarO strains – OD600, teichoic acid synthesis inhibitors, primary screen (AID 463173)
# Conditions: S. aureus RN4220 wild type/DeltatarO growth, OD600, 18 h, active compounds read low, screened at 18.75 µg/mL (by protocol)
row,Structure (SMILES),survival
1,O=C(c1ccccc1)N1CCc2cc(CNS(=O)(=O)c3ccc(Cl)s3)ccc21,inactive: 93%
2,COc1ccc(-n2c(SCC(=O)NCc3ccc(F)cc3)nc3c([nH]c4ccccc43)c2=O)cc1,inactive: 105%
3,COc1ccc(S(=O)(=O)NCC(c2ccco2)S(=O)(=O)c2cccs2)cc1F (configuration not stated),inactive: 102%
4,Cc1ccc(-c2nc3c4c(-c5ccccc5)c(-c5ccccc5)oc4ncn3n2)cc1,inactive: 56%
5,Cc1ccc(CCNC(=O)C2CCN(S(=O)(=O)c3ccc4c(ccn4C)c3)CC2)cc1,inactive: 94%
6,CCOc1ccc(NC(=O)c2c(C)oc3nc(C)nc(N4CCOCC4)c23)cc1,inactive: 93%
7,Cc1ccc(CNC(=O)CSc2nc3ccccc3nc2Cc2ccc(C)cc2)cc1,inactive: 71%
8,Cn1nnc2c(NCc3c(F)cccc3F)ncnc21,inactive: 80%
9,COc1ccc(N(C(=O)Cn2nnc3ccccc32)C(C(=O)NCc2ccccc2)c2ccc(F)cc2)cc1 (configuration not stated),active: 42%
10,COc1ccc(N2CCN(Cc3nc4c(c(=O)[nH]c(=O)n4C)n3Cc3ccccc3F)CC2)cc1,inactive: 119%
11,COc1ccc(CCNC(=O)c2cc(=O)c3cc(C)c(C)cc3o2)cc1OC,inactive: 85%
12,Cc1nnc(Sc2nc(Sc3nnc(C)s3)nc(N3CCCCC3)n2)s1,inactive: 74%
13,Cn1c(=O)c2c(nc(SCC(=O)Nc3ccc(F)c(F)c3)n2Cc2ccccc2F)n(C)c1=O,inactive: 111%
14,CCc1ccc(C(=O)CC2(O)C(=O)N(CCc3ccccc3)c3ccc(Cl)cc32)cc1 (configuration not stated),active: 19%
15,COc1ccc(CNC(=O)CN2CC(C)CC(C)C2)c(OC)c1 (configuration not stated),inactive: 94%
16,Cc1ccc(-n2ncc(C(=O)NCc3ccco3)c2C2CCN(C(=O)OC(C)(C)C)CC2)cc1,inactive: 94%
17,CNC(=O)C1CCC(Cn2c(=O)c3sccc3n(CC(=O)N3CCC(C)CC3)c2=O)CC1 (configuration not stated),inactive: 58%
18,COC(=O)c1cc(S(=O)(=O)NCC2CCN(Cc3cccc(F)c3)CC2)cn1C,inactive: 122%
19,Cc1ccc2nc(Cl)c3cc(C(=O)N4CCCCC4)sc3c2c1,active: -8%
20,Cc1cc(C)c(Cn2c(=O)n(CCCC(=O)NCc3ccc4c(c3)OCO4)c(=O)c3sccc32)c(C)c1,inactive: 104%
21,CCOC(=O)c1c(C)oc2nc(C)nc(NCCCN3CCN(c4cc(C)ccc4C)CC3)c12,inactive: 82%
22,CC(C)c1ccc(Nc2c(-c3ccccn3)nc3ccccn23)cc1,active: -4%

row,Structure (SMILES),survival
1,COc1ccc(-c2nc(CSCC(=O)NCc3ccccc3Cl)c(C)o2)cc1OC,active: 46%
2,O=C(NCCc1ccc(Cl)cc1)C1CCN(S(=O)(=O)c2ccc3[nH]ccc3c2)CC1,inactive: 94%
3,COc1ccc(CCNC(=O)C(=O)NCC(c2cccs2)S(=O)(=O)c2ccc(F)cc2)cc1 (configuration not stated),inactive: 90%
4,COc1ccc(-c2noc(CNC(=O)COc3cccc(C)c3C)n2)cc1,inactive: 51%
5,Cc1cccc(NC(=O)c2cc3c(=O)n(Cc4cccnc4)ccc3nc2C)c1,active: 0%
6,N#Cc1cc2c(=O)n3ccccc3nc2n(-c2nnc(SCc3ccccc3Cl)s2)c1=O,inactive: 84%
7,CCC(Sc1nc2n[nH]c(C)c2c(=N)n1-c1ccccc1Cl)C(=O)N(CC)CC (configuration not stated),inactive: 126%
8,O=C(NCCO)c1ccc2nc(-c3ccco3)c(-c3ccco3)nc2c1,inactive: 87%
9,CC1Cn2c(C(=O)NCc3ccccc3Cl)cc3cccc(c32)S1 (configuration not stated),inactive: 96%
10,COc1ccc(NC(=O)CCn2cnc3onc(-c4ccc(F)cc4)c3c2=O)cc1OC,inactive: 119%
11,CCCCCN1C(C(=O)c2ccccc2)=C(OC(=O)CC)c2ccccc2S1(=O)=O,active: -4%
12,COc1cc(OC)c(NC(=O)CCc2c(C)nc3c4c(C)cc(C)nc4nn3c2C)cc1Cl,inactive: 72%
13,CC(NC(=O)c1ccc2c(c1)sc1nc(-c3ccc(F)cc3)cn12)C12CC3CC(CC(C3)C1)C2 (configuration not stated),inactive: 96%
14,FC(F)(F)c1cccc(Nc2c3c(nc4ccc(Cl)cc24)CCC3)c1,active: 9%
15,COc1cccc(/C=C/c2nc(C#N)c(N3CCN(C)CC3)o2)c1,inactive: 83%
16,COc1cc(NC(=O)C2CCN(S(=O)(=O)c3c(C)noc3/C=C/c3ccccc3F)CC2)cc(OC)c1OC,inactive: 74%
17,Cc1ccc(CCNC(=O)CCCc2nnc3n(C)c(=O)c4sccc4n23)cc1,inactive: 86%
18,COc1cccc(CSc2nc3n(n2)C(CC(C)C)C(C(=O)Nc2ccccc2C)=C(C)N3)c1 (configuration not stated),inactive: 87%
19,COc1ccc(C(=O)Nc2cccc(C(=O)OCc3cc(=O)n4c5c(sc4n3)CCCC5)c2)cc1,inactive: 64%
20,COc1ccccc1-n1c(=O)n(C)c2c(C(N)=O)nc(-c3cccc(OC)c3OC)nc21,inactive: 83%
21,CCOC(=O)Cn1c(=O)n(CC2CCCO2)c2nc(-c3cc(OC)ccc3OC)nc(C(N)=O)c21 (configuration not stated),inactive: 109%
22,COc1ccc(CCNC(=O)CCc2c(C)nc3cc(-c4cccc(F)c4)nn3c2C)cc1OC,inactive: 132%

row,Structure (SMILES),survival
1,O=C(NCC(c1cccs1)S(=O)(=O)c1cccs1)c1c(F)cccc1F (configuration not stated),inactive: 72%
2,CCCOc1ccc(C(=O)N(Cc2ccco2)Cc2ccco2)cc1,inactive: 55%
3,CC(C)c1nn2c(=O)cc(COC(=O)c3ccc(NC(=O)c4cccs4)cc3)nc2s1,inactive: 90%
4,COc1ccc(OC(=O)c2nc(SCc3ccccc3C)ncc2Cl)cc1,inactive: 66%
5,Cc1ccccc1OCC(=O)Nc1ccccc1OCc1cc(=O)n2ccccc2n1,inactive: 85%
6,COc1ccc(OC)c(NC(=O)c2c(NCc3ccc(OC)c(OC)c3)sc3c2CCC(C)C3)c1 (configuration not stated),inactive: 77%
7,O=C(C1CCCCC1)N(Cc1cccnc1)c1nc2c(F)cc(F)cc2s1,inactive: 88%
8,CCN1CCOC(=O)C1CC(=O)Nc1ccc(C)c(Cl)c1 (configuration not stated),inactive: 34%
9,Cn1c(=O)c2c(n(C)c1=O)=NC1(CCCCC1)N=2,inactive: 95%
10,COc1ccc(CNC(=O)CCC2N=C3c4ccccc4N=C(SCc4ccc(F)cc4)N3C2=O)cc1 (configuration not stated),inactive: 83%
11,Nc1c(C(=O)Nc2cccc(F)c2)sc2nc(-c3cccs3)ccc12,inactive: 69%
12,Cc1ccccc1-c1nc2scc(CCNC(=O)C(=O)Nc3ccc(F)cc3F)n2n1,active: -2%
13,Cc1cc(C)nc(NS(=O)(=O)c2ccc(NC(=O)c3cc(=O)c4ccc(C)c(C)c4o3)cc2)n1,inactive: 62%
14,CCCc1c(C)nc(N)c(C#N)c1-c1ccc(OC)c(OC)c1,inactive: 71%
15,CC(=O)N(C(C)=O)c1ccc(C)cc1,inactive: 102%
16,Cc1ccc2nc(NC(=O)c3ccc(S(=O)(=O)N4CCCc5ccccc54)cc3)sc2c1,inactive: 144%
17,CCN(CC)/C(=N/OCc1ccc(Cl)cc1Cl)c1nonc1N,inactive: 103%
18,COc1ccc(CC(=O)Nc2ccc3nc(Nc4cccc(Cl)c4)cc(C)c3c2)cc1,inactive: 98%
19,CCOC(=O)C1CCCN(c2c(C(=O)c3ccc(C)cc3)cnc3ccc(OCC)cc23)C1 (configuration not stated),active: 10%
20,Cc1ccc(Nc2c(-c3ccc(N4CCOCC4)cc3)nc3c(C)cccn23)cc1,inactive: 56%
21,Nc1c(C(=O)NCCc2ccccc2)nnn1CC(=O)Nc1ccc(Cl)cc1,inactive: 64%
22,CCCn1c(CCC(=O)Nc2cccc(C)c2C)nc2cccnc21,inactive: 125%

row,Structure (SMILES),survival
1,O=C(CSc1nc2c([nH]c3ccccc32)c(=O)n1-c1ccccc1)c1ccc(Cl)cc1,inactive: 92%
2,C=Cc1ccc(Cn2c(C(=O)O)c(CNCCc3ccccc3)c3ccc(C)cc32)cc1,inactive: 92%
3,COc1cc(NS(=O)(=O)c2ccc3[nH]c4c(c3c2)CCCC4)cc(OC)c1OC,inactive: 109%
4,Cc1ccc(Cl)cc1N1CCN(C(=O)c2ccc(CS(=O)(=O)c3ccc(Br)cc3)o2)CC1,inactive: 127%
5,Cc1oc2ncn(C)c(=O)c2c1C(=O)N(Cc1ccccc1)C(C)C,inactive: 82%
6,CCOC(=O)c1c(C)[nH]c(CCC(=O)NCc2cccc(OC)c2)c1C,inactive: 89%
7,Cc1ccc(Cl)cc1N1CCN(C(=O)CCn2c(=O)c3cccn3c3cccnc32)CC1,active: 39%
8,COCCn1c(SCC(=O)Nc2cccc(C)c2C)nc2c(oc3ccccc32)c1=O,inactive: 106%
9,CC1(c2ccc(Cl)cc2Cl)OCC(Cn2cncn2)O1 (configuration not stated),inactive: 83%
10,COc1ccc(CCNC(=O)c2cc3c(-c4ccc(OC)c(OC)c4)nn(C)c3s2)cc1OC,inactive: 91%
11,Cc1cc(-c2ccc(S(=O)(=O)Nc3cc(Cl)ccc3C)s2)on1,inactive: 126%
12,COc1cc(NC(=O)CN2C(=O)C(c3ccc(Cl)cc3)=NC23CCCCC3)cc(OC)c1,inactive: 70%
13,CC(C)c1ccc(C2c3c(oc4ccc(Cl)cc4c3=O)C(=O)N2CCCN2CCOCC2)cc1 (configuration not stated),inactive: 70%
14,Cc1cc2c(cc3c(SCc4cccc(F)c4)nnc(C)n32)o1,inactive: 68%
15,Cc1cccc(C(=O)N2CCC(N3CCN(Cc4ccc(F)cc4)C(=O)C3=O)CC2)c1,inactive: 94%
16,Cc1ccc(O)c(NC(=O)c2cc(-c3ccc(F)cc3)on2)c1,inactive: 81%
17,O=c1c2c3c(sc2n(Cc2ccccc2F)c(=O)n1-c1ccc(Cl)cc1)CCCC3,inactive: 101%
18,Cc1ccccc1CSCCNC(=O)C1CCN(S(=O)(=O)Cc2ccccc2)CC1,inactive: 101%
19,COC(=O)c1ccc(Cl)cc1NC(=O)NC(C)c1c(-n2cccc2)sc(C)c1C (configuration not stated),active: 19%
20,COc1ccc(NC(=O)CCc2nc3cccnc3n2-c2ccccc2)cc1Cl,inactive: 56%
21,Cc1oc2ccc(O)c(CN3CCCCC3C)c2c1C(=O)Nc1ccccc1 (configuration not stated),inactive: 88%
